These are yes or no findings as the source states them, for the method shown. For part of these data: In cells and extracts the contact can be indirect. Some entries that bind do so weakly or less than the wild type. Sequences can lack the tags named with a protein.
T1: Orc5, subunit of the origin recognition complex (ORC), two-hybrid fusion (S. cerevisiae) (UniProt P50874)
T1 sequence: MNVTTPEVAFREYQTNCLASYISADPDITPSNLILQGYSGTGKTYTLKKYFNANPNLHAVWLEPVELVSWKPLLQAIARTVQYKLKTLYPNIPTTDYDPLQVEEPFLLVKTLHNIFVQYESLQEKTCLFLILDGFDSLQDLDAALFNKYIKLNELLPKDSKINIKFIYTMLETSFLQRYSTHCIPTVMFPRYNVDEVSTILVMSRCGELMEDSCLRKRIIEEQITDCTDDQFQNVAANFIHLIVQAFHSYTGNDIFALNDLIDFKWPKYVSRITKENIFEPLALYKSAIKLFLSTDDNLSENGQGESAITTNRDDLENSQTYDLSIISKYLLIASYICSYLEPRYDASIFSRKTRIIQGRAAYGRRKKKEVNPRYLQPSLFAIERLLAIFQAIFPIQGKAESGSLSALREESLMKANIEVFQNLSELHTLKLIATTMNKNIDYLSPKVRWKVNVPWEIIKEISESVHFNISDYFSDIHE

T2: rrm3-ΔN186-myc (S. cerevisiae) (UniProt P38766)
T2 sequence: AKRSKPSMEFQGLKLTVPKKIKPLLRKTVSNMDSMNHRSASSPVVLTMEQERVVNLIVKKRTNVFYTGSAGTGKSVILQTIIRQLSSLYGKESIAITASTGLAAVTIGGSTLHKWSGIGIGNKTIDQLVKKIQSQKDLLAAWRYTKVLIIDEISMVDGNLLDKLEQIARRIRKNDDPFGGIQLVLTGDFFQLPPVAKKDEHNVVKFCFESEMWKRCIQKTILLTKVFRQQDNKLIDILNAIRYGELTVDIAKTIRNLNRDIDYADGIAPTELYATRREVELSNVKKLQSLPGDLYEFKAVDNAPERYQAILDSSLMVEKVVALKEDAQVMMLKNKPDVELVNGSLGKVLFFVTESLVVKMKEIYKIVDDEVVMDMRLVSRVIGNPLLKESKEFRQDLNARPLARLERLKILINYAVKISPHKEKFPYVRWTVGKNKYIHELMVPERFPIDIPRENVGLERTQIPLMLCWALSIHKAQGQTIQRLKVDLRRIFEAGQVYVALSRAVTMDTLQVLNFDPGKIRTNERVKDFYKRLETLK

T3: Rrm3-myc (S. cerevisiae) (UniProt P38766)
T3 sequence: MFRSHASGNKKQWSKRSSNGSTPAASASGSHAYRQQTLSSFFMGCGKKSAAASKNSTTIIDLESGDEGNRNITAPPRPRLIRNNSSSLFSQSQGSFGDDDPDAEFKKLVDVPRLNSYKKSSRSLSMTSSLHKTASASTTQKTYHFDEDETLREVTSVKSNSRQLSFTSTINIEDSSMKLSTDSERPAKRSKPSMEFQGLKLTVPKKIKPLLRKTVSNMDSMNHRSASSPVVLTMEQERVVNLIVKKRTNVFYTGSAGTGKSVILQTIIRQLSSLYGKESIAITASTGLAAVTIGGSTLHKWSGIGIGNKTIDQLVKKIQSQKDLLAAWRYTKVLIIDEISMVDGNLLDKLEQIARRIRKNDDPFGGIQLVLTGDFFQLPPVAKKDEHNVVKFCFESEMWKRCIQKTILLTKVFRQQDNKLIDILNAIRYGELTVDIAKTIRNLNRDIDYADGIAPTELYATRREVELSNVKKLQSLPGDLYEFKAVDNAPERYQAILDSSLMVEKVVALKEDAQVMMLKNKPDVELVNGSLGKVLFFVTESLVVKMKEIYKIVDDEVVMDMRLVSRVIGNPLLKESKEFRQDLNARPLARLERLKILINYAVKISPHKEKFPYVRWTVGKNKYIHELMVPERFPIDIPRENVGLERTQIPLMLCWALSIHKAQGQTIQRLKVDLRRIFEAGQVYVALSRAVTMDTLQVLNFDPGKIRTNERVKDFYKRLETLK


Assays:
[1] = target: T1, Orc5, subunit of the origin recognition complex (ORC), two-hybrid fusion (S. cerevisiae); assay: two-hybrid; lexA-fusion bait (pEG202) and B42-tagged prey (pJG4-5*) in yeast EGY48 with pSH18-34; growth on SC-His-Trp-Leu (LEU2 reporter) with galactose, with or without HU or MMS; colony growth after 72 hours
[2] = target: T2, rrm3-ΔN186-myc (S. cerevisiae); assay: co-IP; lysates of yeast cells expressing Orc5-V5-6xHis and myc-tagged Rrm3 alleles; magnetic beads coated with c-myc antibody, 2 h at 4°C; with or without 300 U Benzonase; blots with antibodies against myc and V5
Rrm3-myc (S. cerevisiae) = target: T3, Rrm3-myc (S. cerevisiae); assay: as above

| Binder | binding [1] | binding [2] | binding (Rrm3-myc (S. cerevisiae)) |
| --- | --- | --- | --- |
| Rrm3 (wildtype), two-hybrid fusion (protein, UniProt P38766 1-723) MFRSHASGNKKQWSKRSSNGSTPAASASGSHAYRQQTLSSFFMGCGKKSAAASKNSTTIIDLESGDEGNRNITAPPRPRLIRNNSSSLFSQSQGSFGDDDPDAEFKKLVDVPRLNSYKKSSRSLSMTSSLHKTASASTTQKTYHFDEDETLREVTSVKSNSRQLSFTSTINIEDSSMKLSTDSERPAKRSKPSMEFQGLKLTVPKKIKPLLRKTVSNMDSMNHRSASSPVVLTMEQERVVNLIVKKRTNVFYTGSAGTGKSVILQTIIRQLSSLYGKESIAITASTGLAAVTIGGSTLHKWSGIGIGNKTIDQLVKKIQSQKDLLAAWRYTKVLIIDEISMVDGNLLDKLEQIARRIRKNDDPFGGIQLVLTGDFFQLPPVAKKDEHNVVKFCFESEMWKRCIQKTILLTKVFRQQDNKLIDILNAIRYGELTVDIAKTIRNLNRDIDYADGIAPTELYATRREVELSNVKKLQSLPGDLYEFKAVDNAPERYQAILDSSLMVEKVVALKEDAQVMMLKNKPDVELVNGSLGKVLFFVTESLVVKMKEIYKIVDDEVVMDMRLVSRVIGNPLLKESKEFRQDLNARPLARLERLKILINYAVKISPHKEKFPYVRWTVGKNKYIHELMVPERFPIDIPRENVGLERTQIPLMLCWALSIHKAQGQTIQRLKVDLRRIFEAGQVYVALSRAVTMDTLQVLNFDPGKIRTNERVKDFYKRLETLK | binds |  |  |
| rrm3-ΔN186, two-hybrid fusion (domain or fragment, UniProt P38766 187-723) AKRSKPSMEFQGLKLTVPKKIKPLLRKTVSNMDSMNHRSASSPVVLTMEQERVVNLIVKKRTNVFYTGSAGTGKSVILQTIIRQLSSLYGKESIAITASTGLAAVTIGGSTLHKWSGIGIGNKTIDQLVKKIQSQKDLLAAWRYTKVLIIDEISMVDGNLLDKLEQIARRIRKNDDPFGGIQLVLTGDFFQLPPVAKKDEHNVVKFCFESEMWKRCIQKTILLTKVFRQQDNKLIDILNAIRYGELTVDIAKTIRNLNRDIDYADGIAPTELYATRREVELSNVKKLQSLPGDLYEFKAVDNAPERYQAILDSSLMVEKVVALKEDAQVMMLKNKPDVELVNGSLGKVLFFVTESLVVKMKEIYKIVDDEVVMDMRLVSRVIGNPLLKESKEFRQDLNARPLARLERLKILINYAVKISPHKEKFPYVRWTVGKNKYIHELMVPERFPIDIPRENVGLERTQIPLMLCWALSIHKAQGQTIQRLKVDLRRIFEAGQVYVALSRAVTMDTLQVLNFDPGKIRTNERVKDFYKRLETLK | binds |  |  |
| Orc5-V5-6xHis (protein, UniProt P50874 1-479) MNVTTPEVAFREYQTNCLASYISADPDITPSNLILQGYSGTGKTYTLKKYFNANPNLHAVWLEPVELVSWKPLLQAIARTVQYKLKTLYPNIPTTDYDPLQVEEPFLLVKTLHNIFVQYESLQEKTCLFLILDGFDSLQDLDAALFNKYIKLNELLPKDSKINIKFIYTMLETSFLQRYSTHCIPTVMFPRYNVDEVSTILVMSRCGELMEDSCLRKRIIEEQITDCTDDQFQNVAANFIHLIVQAFHSYTGNDIFALNDLIDFKWPKYVSRITKENIFEPLALYKSAIKLFLSTDDNLSENGQGESAITTNRDDLENSQTYDLSIISKYLLIASYICSYLEPRYDASIFSRKTRIIQGRAAYGRRKKKEVNPRYLQPSLFAIERLLAIFQAIFPIQGKAESGSLSALREESLMKANIEVFQNLSELHTLKLIATTMNKNIDYLSPKVRWKVNVPWEIIKEISESVHFNISDYFSDIHE |  | binds | binds |
| rrm3-ΔN212, two-hybrid fusion (domain or fragment, UniProt P38766 213-723) KTVSNMDSMNHRSASSPVVLTMEQERVVNLIVKKRTNVFYTGSAGTGKSVILQTIIRQLSSLYGKESIAITASTGLAAVTIGGSTLHKWSGIGIGNKTIDQLVKKIQSQKDLLAAWRYTKVLIIDEISMVDGNLLDKLEQIARRIRKNDDPFGGIQLVLTGDFFQLPPVAKKDEHNVVKFCFESEMWKRCIQKTILLTKVFRQQDNKLIDILNAIRYGELTVDIAKTIRNLNRDIDYADGIAPTELYATRREVELSNVKKLQSLPGDLYEFKAVDNAPERYQAILDSSLMVEKVVALKEDAQVMMLKNKPDVELVNGSLGKVLFFVTESLVVKMKEIYKIVDDEVVMDMRLVSRVIGNPLLKESKEFRQDLNARPLARLERLKILINYAVKISPHKEKFPYVRWTVGKNKYIHELMVPERFPIDIPRENVGLERTQIPLMLCWALSIHKAQGQTIQRLKVDLRRIFEAGQVYVALSRAVTMDTLQVLNFDPGKIRTNERVKDFYKRLETLK | no binding |  |  |
| rrm3-ΔN230, two-hybrid fusion (domain or fragment, UniProt P38766 231-723) VLTMEQERVVNLIVKKRTNVFYTGSAGTGKSVILQTIIRQLSSLYGKESIAITASTGLAAVTIGGSTLHKWSGIGIGNKTIDQLVKKIQSQKDLLAAWRYTKVLIIDEISMVDGNLLDKLEQIARRIRKNDDPFGGIQLVLTGDFFQLPPVAKKDEHNVVKFCFESEMWKRCIQKTILLTKVFRQQDNKLIDILNAIRYGELTVDIAKTIRNLNRDIDYADGIAPTELYATRREVELSNVKKLQSLPGDLYEFKAVDNAPERYQAILDSSLMVEKVVALKEDAQVMMLKNKPDVELVNGSLGKVLFFVTESLVVKMKEIYKIVDDEVVMDMRLVSRVIGNPLLKESKEFRQDLNARPLARLERLKILINYAVKISPHKEKFPYVRWTVGKNKYIHELMVPERFPIDIPRENVGLERTQIPLMLCWALSIHKAQGQTIQRLKVDLRRIFEAGQVYVALSRAVTMDTLQVLNFDPGKIRTNERVKDFYKRLETLK | no binding |  |  |
